Assay results from publication PMC4336329 (PLoS ONE, 2015).
Among all 310,000 compounds or so, about 14,000 (4.5%) showed an effect of 50% or more. Effects have a minus sign here. The list shows a part of the results.

Target: human ether-à-go-go-related gene (hERG) potassium channel (human, UniProt Q12809)
Assay: primary screen, population patch clamp on CHO cells stably expressing hERG
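Note: peak tail current of the secondary pulse compared with the same well before compound.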

Chain of human ether-à-go-go-related gene (hERG) potassium channel (Q12809 whole entry, looked up): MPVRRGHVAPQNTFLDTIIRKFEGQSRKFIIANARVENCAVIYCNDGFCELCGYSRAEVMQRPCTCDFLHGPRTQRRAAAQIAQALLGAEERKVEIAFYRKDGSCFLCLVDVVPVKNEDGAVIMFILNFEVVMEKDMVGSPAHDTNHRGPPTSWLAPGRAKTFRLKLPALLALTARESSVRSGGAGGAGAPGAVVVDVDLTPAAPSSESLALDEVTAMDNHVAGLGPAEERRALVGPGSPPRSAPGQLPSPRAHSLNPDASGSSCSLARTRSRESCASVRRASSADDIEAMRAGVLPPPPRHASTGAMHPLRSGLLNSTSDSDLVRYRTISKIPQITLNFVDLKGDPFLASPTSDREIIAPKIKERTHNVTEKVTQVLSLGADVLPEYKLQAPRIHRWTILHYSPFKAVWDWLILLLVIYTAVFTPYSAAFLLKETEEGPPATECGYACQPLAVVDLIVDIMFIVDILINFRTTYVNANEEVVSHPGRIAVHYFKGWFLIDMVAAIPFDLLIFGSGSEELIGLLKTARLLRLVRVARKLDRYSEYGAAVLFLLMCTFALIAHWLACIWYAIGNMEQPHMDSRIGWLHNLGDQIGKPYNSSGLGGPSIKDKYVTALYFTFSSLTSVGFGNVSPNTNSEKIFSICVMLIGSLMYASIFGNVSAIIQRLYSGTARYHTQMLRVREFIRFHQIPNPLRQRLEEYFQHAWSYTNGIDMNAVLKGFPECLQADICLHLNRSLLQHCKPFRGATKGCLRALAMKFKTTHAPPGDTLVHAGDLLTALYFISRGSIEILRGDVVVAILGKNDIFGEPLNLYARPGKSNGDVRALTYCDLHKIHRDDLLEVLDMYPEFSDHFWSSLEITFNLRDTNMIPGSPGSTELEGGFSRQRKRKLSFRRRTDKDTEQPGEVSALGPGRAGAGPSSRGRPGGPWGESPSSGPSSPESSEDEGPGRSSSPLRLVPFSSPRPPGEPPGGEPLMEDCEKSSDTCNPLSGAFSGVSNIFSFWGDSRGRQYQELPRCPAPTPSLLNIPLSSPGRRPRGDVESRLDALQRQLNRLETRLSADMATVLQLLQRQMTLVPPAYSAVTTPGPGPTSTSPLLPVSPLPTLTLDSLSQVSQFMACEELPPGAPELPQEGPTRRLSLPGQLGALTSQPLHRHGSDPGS

Row | SMILES | hERG current change (%, negative = inhibition) at 10uM [%]
1 | COc1cccc2cc(C(=O)NCc3ccccc3Cl)c(=O)oc12 | 6.78
2 | Cc1onc(-c2c(Cl)cccc2Cl)c1C(=O)Nc1ccc(N2CCOCC2)cc1 | -9.68
3 | CC(/C=C1\SC(=S)N(NC(=O)c2ccc(O)cc2)C1=O)=C\c1ccccc1 | -6.1
4 | O=C(CS(=O)(=O)Cc1ccccc1)Nc1nc2c(s1)CCCC2 | -12.1
5 | COC(C[C@@H]1O[C@H]1C(=O)[C@@H](C)OCc1ccccc1)OC | 14.2
6 | COc1cccc(C2C3=C(N=c4s/c(=C\c5cccc(O)c5)c(=O)n42)c2ccccc2CC3)c1OC (stereo not shown) | 29.1
7 | Cn1ccc2ccc(C3=CC(=O)C[C@H](c4ccc(F)cc4)C3)cc21 | 8.46
8 | CSc1nnnn1-c1c(C)cccc1C | 12.9
9 | Nc1cccc(C(=O)Nc2ccco2)c1 | -2.33
10 | O=C(NCc1ccco1)/C(=C/c1cccnc1)NC(=O)c1cccc(Br)c1 | -59.6
11 | CCOC(=O)C1=C(C)NC(=S)N(C=O)C1c1ccccc1 (stereo not shown) | 22.4
12 | CCn1cc(C(=O)NCc2ccco2)c(=O)c2ccc(C)nc21 | 16.9
13 | C=CCNC(=O)/C(C#N)=C/c1ccc(OS(=O)(=O)c2ccc(C)cc2)c(OC)c1 | 12.5
14 | CCCC(=O)Nc1ccc(-c2cn3cccnc3n2)cc1 | 3.08
15 | CC(=O)CCc1ccc(OCCCOc2cccc3cccnc23)cc1 | -11.2
16 | C=CCOC(=O)c1ccc(N2CCN(c3ccccc3)CC2)nc1 | 12.3
17 | CC(C)c1nc(SCC(=O)N2CCCC2)c2c(=O)n(C)c(=O)n(C)c2n1 | -21.8
18 | O=C(CC1C(=O)Nc2ccccc2N1CC(=O)N1CCCC1)Nc1ccc(Br)cc1 (stereo not shown) | -7.16
19 | CCC1CCCCN1CCCNC(=O)c1cc2c(Cl)nc3ccccc3c2s1 (stereo not shown) | -76.6
20 | CC(=O)c1cccc(NC(=O)COc2ccc(S(=O)(=O)N3CCOCC3)cc2)c1 | -10.1

Row | SMILES | hERG current change (%, negative = inhibition) at 10uM [%]
21 | CCN(CC)C(=O)CSc1nc(C)cc(C)n1 | 9.66
22 | Cc1cccc(C)c1NC(=O)NCCSc1snnc1C | 24.5
23 | C=CCn1c(SCC(=O)N(C)C2CCS(=O)(=O)C2)nnc1-c1ccccc1 (stereo not shown) | 16.8
24 | COC(=O)[C@H](CCSC)NC(=O)Nc1ccc(C)cc1C | 10.5
25 | O=C(CCCN1C(=O)CCC1=O)Nc1ccc2c(c1)OCCO2 | 6.3
26 | CCOC(=O)C1=C(c2ccccc2)O/C(=C(/C#N)C(F)(F)F)S1 | 17.4
27 | Brc1ccc(Cn2c(-c3cncs3)nc3ccccc32)cc1 | -0.72
28 | CCC1Oc2ccccc2N(CC(=O)NC2CCCCC2C)C1=O (stereo not shown) | -5.63
29 | CCC(C)n1c(-c2cc(OC)c(OC)c(OC)c2)nc2nc3ccccc3nc21 (stereo not shown) | -50.9
30 | O=c1[nH]cccc1-c1nc2ccccc2[nH]1 | 12.8
31 | N#CC(CC(=O)c1ccc(F)cc1)c1ccc2c(c1)OCO2 (stereo not shown) | -15.2
32 | CCN(CC)CCNC(=O)CN1C(=O)COc2ccc(S(=O)(=O)N3CCOCC3)cc21 | 18.2
33 | Cc1ccc(N2C(=O)c3cccc4c(Oc5ccccc5[N+](=O)[O-])ccc(c34)C2=O)c(C)c1 | 3.74
34 | CC(C)c1onc(C(=O)NCc2ccccn2)c1[N+](=O)[O-] | -1.61
35 | Cn1c2ccccc2c2cc(C(=O)N3CCOCC3)sc21 | 9.07
36 | COc1ccc(NS(=O)(=O)c2cc(NC(=O)CCNC(C)=O)ccc2N2CCCCC2)cc1 | -21.8
37 | CC1(C)Cc2cccc(OCC(=O)N3CCN(S(=O)(=O)c4ccccc4F)CC3)c2O1 | -14.6
38 | Cc1cccc(CSc2nc(N)c(C#N)c(-c3cccs3)c2C#N)c1 | -10
39 | CCC1=C(c2cc(OC)c(OC)c(OC)c2)C2(CCCC2)C(=O)O1 | -29.2
40 | CC(=O)Nc1cccc(-c2nnc(-c3ccc(C)cc3)o2)c1 | 3.08

Row | SMILES | hERG current change (%, negative = inhibition) at 10uM [%]
41 | CNS(=O)(=O)c1ccc(NC(=O)Nc2cccc(F)c2)cc1 | 12.9
42 | COc1cccc(C(=O)NNC(=O)C(=O)Nc2ccc(C)cc2)c1 | 9.51
43 | COc1ccc(CC(=S)N2CCOCC2)cc1F | 0.299
44 | Brc1ccc(-c2ccc(CNCc3ccccn3)o2)cc1.Cl | -27.3
45 | Cc1ccc(O)c(-c2cc(C(=O)NCc3ccc4c(c3)OCO4)[nH]n2)c1 | -4.87
46 | Cc1cc(OCC(=O)O/N=C(\N)Cc2cccs2)ccc1Br | 10.5
47 | Cn1cccc1C(=O)NC(=O)CSc1cccc[n+]1[O-] | 12
48 | O=C(CN1CCN(Cc2cccc(Cl)c2)C1=O)NCc1cccs1 | -25.8
49 | O=C(c1cccs1)N1CCN(C2CCN(Cc3ccccc3)CC2)CC1 | -64.3
50 | CCOc1nc(-c2ccc(C)cc2)ccc1-c1noc(COC)n1 | -2.63
51 | Cc1ccc(CN(CC(=O)NC2CCCC2)C(=O)c2csnn2)cc1 | -3.38
52 | Cc1ccc(-c2cc(N)n(-c3ccc(F)cc3)n2)cc1 | -1.66
53 | COc1ccccc1C1CC(=O)NC(C)=C1C(=O)OC(C)C (stereo not shown) | 3.24
54 | CC(C)(C)OC(=O)N1CC2Cc3[nH]c(=O)ccc3C(C2)C1 (stereo not shown) | 5.99
55 | CC(C)(C)NC(=O)NC(=O)COC(=O)C1CCN(S(=O)(=O)c2cccs2)CC1 | 9.39
56 | CCOc1ccc(C(C)NC(=O)C2CCCC2)cc1 (stereo not shown) | 3.62
57 | Cc1ccc2ccc(C3C(=O)c4ccccc4C3=O)nc2c1 | 12.7
58 | CCCCn1c(C23CC4CC(CC(C4)C2)C3)n[nH]c1=S | -5.15
